{"source": "PubChem BioAssay AID540317", "about": "(National Center for Advancing Translational Sciences (NCATS), 2011)", "note": "Among all 390,000 compounds or so, about 2,200 (0.56%) were called active. The inconclusive results got no clear call from the source; some entries with a clear call stand among them for comparison. Calls follow the shape of the dose curve; as a rule, active = well fitted inhibition curve with a large enough effect; inconclusive = small, poorly fitted or top-dose-only effect; inactive = no such curve, though single readings can be large or run the other way. Where the call is inconclusive, the potency comes from a doubtful curve fit. Potency is read from the fitted curve at half-maximal effect; tags tell the direction and shape of the fitted curve."}
{"biological_target": "Chromobox protein homolog 1 (Homo sapiens) (UniProt P83916)", "sequence (P83916 whole entry, looked up)": "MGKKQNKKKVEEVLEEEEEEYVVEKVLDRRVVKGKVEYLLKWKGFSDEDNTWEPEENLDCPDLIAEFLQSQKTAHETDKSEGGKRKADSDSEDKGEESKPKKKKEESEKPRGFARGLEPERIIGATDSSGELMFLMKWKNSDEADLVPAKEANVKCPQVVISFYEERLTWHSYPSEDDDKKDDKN", "assay": "HTS for Inhibitors of HP1-beta Chromodomain Interactions with Methylated Histone Tails; also: nearly all actives have a fitted effect of over 70% in size", "conditions": "AlphaScreen HP1-beta / biotin-H3K9me3 peptide binding; series mostly up to 114 µM; activity change, negative = inhibition: at the top concentration", "summary_of_the_method": "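Compound inhibition of the preformed complex between 50 nM HP1-beta and 50 nM biotinylated H3K9me3 peptide was read by AlphaScreen. Buffer was PBS pH 7.4 with 0.01% Tween-20. Incubations ran 30 min at room temperature, with 10 ug/mL donor/acceptor beads.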"}
{"smiles": "COc1ccccc1N1CCN(CC(=O)c2ccc(F)cc2)CC1", "Potency": "inconclusive: 28.2 µM [inhibitor, single point]"}
{"smiles": "COC(=O)C1=C(C)NC(=O)/C1=C\\c1cc(C)n(-c2c(C)cccc2C)c1C", "Potency": "inconclusive: 35.5 µM [inhibitor, partial curve]"}
{"smiles": "CC(C)CN1CCC(C(=O)NCC2CCCO2)CC1", "note": "(stereo not given)", "Potency": "inconclusive: 28.2 µM [inhibitor, full curve]"}
{"smiles": "CC(C)(C)NC(=O)COc1coc(CN2CCN(C(=O)c3ccco3)CC2)cc1=O", "activity change, negative = inhibition": "inactive: 44.3%"}
{"smiles": "S=C(NCc1ccc2[nH]c3c(c2c1)CCCC3)Nc1ccccc1Cl", "Potency": "inconclusive: 22.4 µM [inhibitor, partial curve, poor fit]"}
{"smiles": "O=C(Cc1ccc(S(=O)(=O)N2CCOCC2)s1)Nc1cc(C(F)(F)F)ccc1N1CCCC1", "activity change, negative = inhibition": "inactive: 17.2%"}
{"smiles": "COc1ccc(OCc2ccc(-c3nc(C#N)c(N4CCC(C)CC4)o3)o2)cc1", "Potency": "inconclusive: 8.91 µM [inhibitor, full curve, poor fit]"}
{"smiles": "O=C1c2ccccc2C(Nc2ccc3c(c2)OCCO3)N1Cc1ccccc1", "note": "(stereo not given)", "Potency": "inconclusive: 39.8 µM [inhibitor, partial curve, poor fit]"}
{"smiles": "O=C(C1CCCN(Cc2ccc([N+](=O)[O-])cc2)C1)N1CCCCC1", "note": "(stereo not given)", "Potency": "inconclusive: 14.1 µM [inhibitor, full curve, poor fit]"}
{"smiles": "CCCN1CCC(NC(=O)Cc2ccc(C)cc2)CC1", "activity change, negative = inhibition": "inactive: 43.1%"}
{"smiles": "O=C1C2CC=CCC2C(=O)N1c1ccc(NCCc2ccc(O)cc2)c([N+](=O)[O-])c1", "note": "(stereo not given)", "Potency": "inconclusive: 22.4 µM [inhibitor, full curve]"}
{"smiles": "Cc1sc2nc(SCC(=O)Nc3cccc(S(N)(=O)=O)c3)[nH]c(=O)c2c1C", "Potency": "inconclusive: 28.2 µM [inhibitor, partial curve]"}
{"smiles": "COc1ccc2cc(CN(CCc3ccccc3)Cc3nnnn3Cc3ccco3)c(=O)[nH]c2c1", "activity change, negative = inhibition": "inactive: -13.4%"}
{"smiles": "c1ccc(CN2CCN(CCOCCOc3ccc4c(c3)CCC4)CC2)cc1", "Potency": "inconclusive: 15.8 µM [inhibitor, full curve, poor fit]"}
{"smiles": "O=C(c1ccccc1)c1ccc(OCCOCCN2CCN(Cc3ccccc3)CC2)cc1", "Potency": "inconclusive: 20 µM [inhibitor, partial curve, poor fit]"}
{"smiles": "CCCN1/C(=C2/SC(=S)N(CC)C2=O)C=Cc2ccccc21", "Potency": "inconclusive: 3.16 µM [inhibitor, full curve, poor fit]"}
{"smiles": "O=C(Nc1c(C(=O)c2ccccc2)oc2ccccc12)c1cc(-c2ccccc2O)n[nH]1", "Potency": "inconclusive: 89.1 µM [inhibitor, single point]"}
{"smiles": "CN(C)c1ccc(/C=N\\Nc2ccccn2)cc1", "Potency": "inconclusive: 35.5 µM [inhibitor, partial curve]"}
{"smiles": "COc1cc(/C=C2\\SC(=S)N(NS(=O)(=O)c3ccccc3)C2=O)ccc1O", "Potency": "inconclusive: 17.8 µM [inhibitor, partial curve, poor fit]"}
{"smiles": "C/C(=N\\Nc1ccc(C(=O)O)cc1)c1ccc(Br)cc1", "Potency": "inconclusive: 25.1 µM [inhibitor, full curve]"}
{"smiles": "Oc1[nH]c2ccc(Br)cc2c1N=NC(=S)Nc1ccc(F)cc1", "Potency": "inconclusive: 12.6 µM [inhibitor, full curve]"}
{"smiles": "COc1ccc(NC(=O)c2cc(S(=O)(=O)N3CCOCC3)cn2C)cc1Cl", "Potency": "inconclusive: 22.4 µM [inhibitor, single point]"}
{"smiles": "COc1ccc(-c2cc(C(F)(F)F)n3ncc(C(=O)N4CCc5ccccc5C4)c3n2)cc1", "Potency": "inconclusive: 89.1 µM [inhibitor, single point]"}
{"smiles": "COc1ccc(N2CCN(Cc3cc(=O)c(OCC(=O)NC4CCCC4)co3)CC2)cc1", "activity change, negative = inhibition": "inactive: 8.75%"}
{"smiles": "COc1ccc(NS(=O)(=O)c2cccc(C(=O)NNC(=O)CNC(=O)c3ccccc3)c2)cc1", "activity change, negative = inhibition": "inactive: 34.4%"}
{"smiles": "CCN(CC)CCNC(=O)C1CCN(c2cc(C)nc3c(-c4ccc(Cl)cc4)c(C)nn23)CC1", "activity change, negative = inhibition": "inactive: 29.2%"}
{"smiles": "Cc1[nH]n(-c2ccccc2)c(=O)c1N=Nc1ccccc1", "Potency": "inconclusive: 8.91 µM [inhibitor, partial curve, poor fit]"}
{"smiles": "Cc1cc(C)cc(NC(=O)C(Nc2ccccc2)c2ccccc2)c1", "note": "(stereo not given)", "Potency": "inconclusive: 89.1 µM [inhibitor, partial curve, poor fit]"}
{"smiles": "CCCCCCCCCCCCCCCC[n+]1ccc(C(N)=O)cc1", "Potency": "inconclusive: 89.1 µM [inhibitor, single point]"}
{"smiles": "CCCOc1ccc(C2Nc3cccc4cccc(c34)N2)cc1", "Potency": "inconclusive: 20 µM [inhibitor, full curve]"}
{"smiles": "O=C(c1cccc(F)c1)N1CCC(N2CCCCCC2)CC1", "Potency": "inconclusive: 56.2 µM [inhibitor, single point]"}
{"smiles": "Cc1ccc(Nc2nc(N)c([N+](=O)[O-])c(NCc3ccco3)n2)cc1C", "Potency": "inconclusive: 44.7 µM [inhibitor, partial curve]"}
{"smiles": "O=C(Cc1cccc(NC(=O)C2CCN(S(=O)(=O)c3cccc([N+](=O)[O-])c3)CC2)c1)Nc1cccc(C(=O)N2CCCCC2)c1", "activity change, negative = inhibition": "inactive: 17.1%"}
{"smiles": "CCCCNC(=O)c1ccc2nc(-c3ccco3)c(-c3ccco3)nc2c1", "Potency": "inconclusive: 15.8 µM [inhibitor, full curve]"}
{"smiles": "Nc1sc2c(c1C(=O)NCCc1ccccc1)CCC2", "Potency": "inconclusive: 50.1 µM [inhibitor, partial curve]"}
{"smiles": "Nc1nc(-c2ccccc2)cs1", "Potency": "inconclusive: 25.1 µM [inhibitor, partial curve]"}
{"smiles": "O=[N+]([O-])c1cc([N+](=O)[O-])c(Oc2c(F)cccc2F)cc1NN1CCCCC1", "Potency": "inconclusive: 25.1 µM [inhibitor, partial curve, poor fit]"}
{"smiles": "Cc1nc(-c2cccc(NC(=O)c3ccco3)c2)cs1", "Potency": "inconclusive: 89.1 µM [inhibitor, single point]"}
{"smiles": "COc1cc(C)c(NC(c2ccccc2)c2ccccc2)cc1OC", "Potency": "inconclusive: 50.1 µM [inhibitor, partial curve, poor fit]"}
{"smiles": "CCC1CN(C(=O)C2CCN(S(=O)(=O)c3c(C)noc3/C=C/c3ccccc3F)CC2)c2cc(Cl)ccc2O1", "note": "(stereo not given)", "activity change, negative = inhibition": "inactive: 22.1% [at 57 µM]"}
